# Results as given in the RNAGym collection of RNA variant scans (doi:10.7554/elife.90254).
# The source gives no read counts; variants with many changes may rest on few reads.
# B1: LINE1-mini (parent)
# chain: GGCAGAGCUCAACACAGCGUGGCAAAGUGGCUGUGGCUAGACUGCC
# Variants of: B1
# Test: self-cleavage, relative activity (ratio to wild type); higher = more cleavage; in vitro, sequencing; the parent is a self-cleaving ribozyme
row,Variant,self-cleavage
1,G5A A11U C13U,0.04
2,A4U C31U U38G,0
3,A4U C31U U38C,0.03
4,A4G G21U G40U,0.15
5,A4U C10G C23G U34A,0.02
6,A4U C13U U32A A41U,0.04
7,G5A A39U C45A,0.03
8,A4G U34A C42G,0.33
9,A4U G19U U34G,0.03
10,A4G G29U G44U,0.66
11,A4U G30A U34G,0.05
12,A4U C23A A25G G35U C46A,0.09
13,G5A A6G A26G G29A,0.03
14,G5A A12C C15A G29U U38G A39G,0
15,G5A A6G C31G,0.05
16,G5A A11C A16C G21A G33U,0.02
17,A4G G7C A11U A16G C23A C31U,0.01
18,A4U U9A A12U C46G,0.06
19,A4G G7U C10G G17A G22U G30C U38C,0.02
20,A4U C23G A25U,0.07
21,A4U A39G C46U,0.08
22,G5A A16G G44U,0.03
23,A4U C13G C45U,0.03
24,A4U A11C G21C C23G,0.02

row,Variant,self-cleavage
1,A4U A25G U32A,0.02
2,A4U G30U C42U,0.02
3,A4U C18G U28C U38G,0.01
4,A4U U34C G40U C45G,0.02
5,G5A A11U G22U U32C,0.04
6,G5A C8G A11U C42A,0.02
7,A4G G17A G19U G30C U32C A39C,0.01
8,A4U G17U G29U G30U A39U,0.03
9,A4U A11U G19U G22A C31A,0.05
10,A4U C8U C31A,0.24
11,G5A C8G G29C G35C,0.02
12,A4U G5C C42A,0.18
13,A4U A14U C18U,0
14,A4U A14U C18A,0.05
15,G5A A11C A16U U38A A39G,0.03
16,A4U G5U C13U G35C,0.06
17,A4G G29A U32C,0.06
18,A4U A6C C13G,0.02
19,A4G G5U G33A,0.03
20,A4U C10A G21U U43A,0.05
21,G5A A6G C15U C42A,0.05
22,G5A A16C G29A,0.04
23,A4U G40U A41C G44U C46G,0.02
24,A4U A11U G17U,0.06

row,Variant,self-cleavage
1,A4U G19A G21A,0.1
2,A4G G5U G44U,0.06
3,A4G U9C C46A,0.01
4,A4G G17A G22A C31A C37U,0.07
5,A4U G17U G33A C45A,0.04
6,A4G G21C G33A,0.07
7,A4U A16U G44U,0
8,A4U A14C A26U G30U U32G C45U,0.46
9,A4U A14U C45A,0.04
10,A4G G17A G22C A41U C42U,0.01
11,A4U C31U U34C,0.09
12,A4U G21U A24G G35C,0.12
13,A4U G7A C37A,0.49
14,G5A A12G C42U,0.06
15,G5A A6C A11U A12G U32G G35C,0.01
16,A4U G30C C37A,0.08
17,A4G U32G G40C,0.03
18,A4G U32G G40A,0.26
19,A4U C42U U43G,0.03
20,G5A C8A A24C,0.97
21,A4U G22U G36A,0.5
22,A4U C18A G33C A39U C42G,0.01
23,A4U A26C A41G,0
24,A4U G5A G33U C37G,0.06

row,Variant,self-cleavage
1,A4G U28C G29U C46A,0.56
2,G5A A12C G17A G21U,0.01
3,A4U G22C A26U,0.05
4,A4U C8G C23A U34A G36C,0.02
5,A4U G5U G22C A26G G33U G36A A39U C45G,0.02
6,A4U G19U G27C U34C C46G,0.03
7,A4U C13G U38G G40U,0.02
8,A4G G5U C8A A24C,0.77
9,A4U U9A U34G A41U,0.13
10,A4G G27U C31G C37U,0.07
11,A4U A6G G19C A41C,0.04
12,G5A A16U C37G C46G,0.05
13,G5A A16U A24C C42A,0.04
14,G5A C8A G17U G29U C31G C42U,0.27
15,A4U C13U G21A U43G,0
16,A4G G21C G22C C42U,0.04
17,A4U C15U C42U,0.13
18,A4U A11G G36U,0.01
19,G5A A12U C23U G33C,0.01
20,G5A C8A A41U,0.76
21,A4U G17U C23A A24C G33U,0.02
22,A4G G5U U20C G40U U43A C46A,0.05
23,G5A A25G G35C,0.06
24,A4U C8G U28C C46A,0.03

row,Variant,self-cleavage
1,G5A A11U G21U G33C,0.03
2,A4U C8U A12G G30A C31A C45A,0
3,A4G G7U U34G G44A,0.37
4,G5A A25C G44U C45G,0.05
5,A4U C23U A26C C42A,0.02
6,A4G G7A A12G G29A,0.03
7,A4U G5C C8A U9G G29C C31G,0.05
8,A4U U28A A41G,0.03
9,A4U C37U G40C,0.05
10,A4U G7A U20A,0.09
11,A4U G5A C8A C15A G29A U43A,0.38
12,A4U G5C U34A G36A,0.03
13,G5A A6C U20A G35A,0.06
14,A4U A25C G27U G40C,0.01
15,A4G G19U U32A C37U G44A,0.26
16,A4U C15U U34G,0.05
17,A4U A11U G40U,0.03
18,A4U G7U G33U G36A,0.18
19,A4U U28G C45G,0.08
20,A4G G33U A41U,0.19
21,A4U C8G G29U U32A,0.06
22,A4U C10U G29U,0.28
23,A4G G17U G22A G33U G40C A41C,0.03
24,A4U A26U U32G,0.04

row,Variant,self-cleavage
1,A4U C23G U28G,0.04
2,A4U G22C U38C A39C,0.11
3,G5A C8A G29U G40U,1.24
4,A4G G17A A25G G27U,0.11
5,A4G G17A A25U G30C G44U,0.01
6,G5A A6G G22A A24C,0.01
7,A4U U20G U43C,0.08
8,A4G G5U G29C,0.01
9,A4G U32G C37A C45G,0.05
10,A4U A6G C13G,0.48
11,A4U U20G C23U G35U,0.03
12,A4U A6U C10A C13A G17C C18G G35A,0.02
13,A4U A12U G29U,0.1
14,A4G U43C C45U,0.64
15,A4U G5U G7A G44U,0.26
16,A4U U20G C31A,0.03
17,A4U A11G A12G U32A,0.02
18,A4G U38A G40C,0.12
19,A4U G5C A12U C31G A41C,0.01
20,A4U G17U G40U C42A,0.16
21,A4U C15G G22C,0
22,A4U G5U G17A G21A U34A U38C,0.02
23,A4U A24U G27A G29C,0.12
24,A4U G5U G21C G29C,0.01

row,Variant,self-cleavage
1,A4U G17A G19A G30A A39G,0.03
2,A4G G44U C46U,0.35
3,G5A A16C C23U G29A U32A,0.03
4,A4U A12C G27C U43C,0.02
5,G5A A14C C37U A41C,0.05
6,A4G U9G C23U U34G A39U,0.03
7,A4U A11C G30A C46U,0.03
8,A4U A16U G30C,0.03
9,A4U G29A C46A,0.08
10,G5A A14C G17U A25G A26C C31A G36U,0.01
11,G5A A12G A39G,0.04
12,A4U G19C A24G C42G,0.08
13,A4U A12C C23G,0.01
14,A4G G21U G33A,0.04
15,A4U G5A A11U A25C A41U C45U,0.01
16,A4U C10A U32G G36C C37A,0.04
17,A4U A16U G21U A26U,0.19
18,A4U U9A G21A A26U C31U G40U C45G,0.01
19,A4U U20A G36A C46G,0.05
20,A4U A14G U20C,0.36
21,A4U G36U G40C C42U,0.1
22,G5A A6G G17U A26C C37A,0.01
23,A4G G22C U28A U38G U43G C45A,0
